A lower IC50 marks a more sensitive line; fits outside the tested doses are given as limits. AUC, from the same fit, is the share of area under the viability curve across the 256-fold dose range: 1 means no effect, lower means more sensitive. For part of these data: A top dose marked as inferred was derived from the fitted curves, not read from the paper. For part of these data: An entry number marks a drug with two screens in the source, which often give different values.
How the values were obtained:
Assay in all cases: Viability of human cancer cell lines after 72 h of drug (GDSC screen)
GNF-2 = compound: NC(=O)c1cccc(-c2cc(Nc3ccc(OC(F)(F)F)cc3)ncn2)c1 [GNF-2]; conditions: top dose 1.28 µM; top dose inferred
Description: (§1)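 Human cancer cell lines in 384-well plates, medium with 10% serum, drug for 72 h over a 256-fold dose range (nine 2-fold or five 4-fold steps up to the top dose). Adherent lines were fixed and stained with the nucleic acid dye Syto60, suspension lines read with resazurin; signal relative to control wells, capped at 0 and 100%. One two-parameter sigmoid per drug and line, fitted in a mixed model over all curves with the slope shared within a line.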

Gemcitabine = compound: Nc1ccn([C@@H]2O[C@H](CO)[C@@H](O)C2(F)F)c(=O)n1 [Gemcitabine]; conditions: top dose 1.024 µM
Description: as §1

LFM-A13 = compound: C/C(O)=C(\C#N)C(=O)Nc1cc(Br)ccc1Br [LFM-A13]; conditions: top dose 16 µM; top dose inferred
Description: as §1

TW-37 = compound: CC(C)c1ccccc1Cc1cc(C(=O)Nc2ccc(S(=O)(=O)c3ccccc3C(C)(C)C)cc2)c(O)c(O)c1O [TW-37]; conditions: top dose 5 µM
Description: as §1

AUY922 = compound: CCNC(=O)c1noc(-c2cc(C(C)C)c(O)cc2O)c1-c1ccc(CN2CCOCC2)cc1 [AUY922]; conditions: top dose 0.256 µM; top dose inferred
Description: as §1

Bicalutamide = compound: CC(O)(CS(=O)(=O)c1ccc(F)cc1)C(=O)Nc1ccc(C#N)c(C(F)(F)F)c1 [Bicalutamide]; conditions: top dose inferred
Description: as §1

KIN001-270 = compound: Cc1ccc(Nc2cc(-c3cccc(N4C(=O)c5ccccc5C4=O)c3)ncn2)cc1NS(C)(=O)=O [KIN001-270]; conditions: top dose 20 µM; top dose inferred
Description: as §1

T0901317 = compound: O=S(=O)(c1ccccc1)N(CC(F)(F)F)c1ccc(C(O)(C(F)(F)F)C(F)(F)F)cc1 [T0901317]; conditions: top dose 10.24 µM; top dose inferred
Description: as §1

MP470 = compound: S=C(NCc1ccc2c(c1)OCO2)N1CCN(c2ncnc3c2oc2ccccc23)CC1 [MP470]; conditions: top dose 20 µM; top dose inferred
Description: as §1

Nilotinib = compound: Cc1cn(-c2cc(NC(=O)c3ccc(C)c(Nc4nccc(-c5cccnc5)n4)c3)cc(C(F)(F)F)c2)cn1 [Nilotinib]; conditions: top dose 2 µM
Description: as §1

[1] = top dose 1.024 µM, screen: GDSC drug entry 150
[2] = top dose 10 µM, screen: GDSC drug entry 1502

Row | Cell Line | AUC (GNF-2) | IC50 (GNF-2) | AUC (Gemcitabine) | IC50 (Gemcitabine) | AUC (LFM-A13) | IC50 (LFM-A13) | AUC (TW-37) | IC50 (TW-37) | AUC (AUY922) | IC50 (AUY922) | AUC (Bicalutamide; [1]) | IC50 (Bicalutamide; [1]) | AUC (Bicalutamide; [2]) | IC50 (Bicalutamide; [2]) | AUC (KIN001-270) | IC50 (KIN001-270) | AUC (T0901317) | IC50 (T0901317) | AUC (MP470) | IC50 (MP470) | AUC (Nilotinib) | IC50 (Nilotinib)
1 | ML-2 (acute myeloid leukaemia, suspension) | 0.984 | > 1280 nM | 0.24 | 12.6 nM | 0.973 | > 16000 nM | 0.695 | 1020 nM | 0.546 | 21.1 nM | 0.989 | > 1020 nM | 0.987 | > 10000 nM | 0.976 | > 20000 nM | 0.904 | > 10200 nM | 0.861 | 14000 nM | 0.964 | > 2000 nM
2 | MLMA (hairy cell leukaemia, semi-adherent) | 0.986 | > 1280 nM | 0.443 | 44.6 nM | 0.977 | > 16000 nM | 0.413 | 180 nM | 0.718 | 66.7 nM | 0.986 | > 1020 nM | 0.982 | > 10000 nM | 0.954 | > 20000 nM | 0.985 | > 10200 nM | 0.982 | > 20000 nM | 0.928 | > 2000 nM
3 | MN-60 (B-cell leukaemia, suspension) | 0.988 | > 1280 nM | 0.913 | > 1020 nM | 0.97 | > 16000 nM | 0.759 | 1810 nM | 0.786 | 115 nM | 0.987 | > 1020 nM | 0.987 | > 10000 nM | 0.964 | > 20000 nM | 0.963 | > 10200 nM | 0.854 | 16800 nM | 0.987 | > 2000 nM
4 | MOLM-13 (acute myeloid leukaemia, suspension) | 0.984 | > 1280 nM | 0.356 | 26.3 nM | 0.98 | > 16000 nM | 0.63 | 695 nM | 0.505 | 16.5 nM | 0.985 | > 1020 nM | 0.978 | > 10000 nM | 0.94 | > 20000 nM | 0.848 | 6890 nM | 0.665 | 3480 nM | 0.978 | > 2000 nM
5 | MOLP-8 (myeloma, suspension) | 0.985 | > 1280 nM | 0.129 | 4.54 nM | 0.931 | > 16000 nM | 0.581 | 514 nM | 0.417 | 9.55 nM | 0.987 | > 1020 nM | 0.985 | > 10000 nM | 0.925 | > 20000 nM | 0.85 | 7340 nM | 0.507 | 1310 nM | 0.974 | > 2000 nM
6 | MOLT-4 (lymphoblastic leukaemia, suspension) | 0.992 | > 1280 nM | 0.45 | 48 nM | 0.979 | > 16000 nM | 0.466 | 257 nM | 0.642 | 36.4 nM | 0.991 | > 1020 nM | 0.983 | > 10000 nM | 0.976 | > 20000 nM | 0.981 | > 10200 nM | 0.921 | > 20000 nM | 0.957 | > 2000 nM

Reference: the supplement of paper PMC4967469
